We go through 51 molecules from article PMC12040169 (PLOS Biology, 2025).

This is one part of the list.

The test system of this assay is T1, C. trachomatis L2/434/Bu expressing GFP (CTL2-GFP).
T1 construct: L2/434/Bu GFP intracellular growth in HeLa cells
More on the design: species or system HeLa; C. trachomatis total inclusion area by high-content imaging, normalised to DMSO. The note with it: total inclusion area; 28.5 h, 10 µM; inhibitor. In a few lines:
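Imaging read-out: GFP inclusions and Hoechst nuclei captured by high-content imaging after fixation. Inclusion area/number = chlamydial growth; nuclei count = host cell viability. MIC calculated per earlier method.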
Take `COc1cc(-c2nccnc2NCC2CCCCC2)cc(OC)c1OC` [CBK037647]: the “% of control remaining” value was 80.9556. For the molecule `CCc1nc2ccc(C(=O)N(C)CCN(C)C)cn2c1N(C)Cc1cc2ccccc2s1` [CBK146551], the “% of control remaining” value is on record as 87.1258. To `CS(=O)(=O)CCS(=O)(=O)N1CCOCC1c1cccc(F)c1` (stereo not drawn) [CBK304111] belongs 23.8792; to `CNC(=O)c1cnc(SC)nc1NCCc1c[nH]c2ccccc12` [CBK093597], 52.7287; to `O=C(O)C(c1c[nH]c2cc(CO)ccc12)N1CCCN(c2ccc(C(F)(F)F)cn2)CC1` (stereo not drawn) [CBK286845], 95.5886.

Consider `COCCNC(=O)N1CCCC(CO)C1` (stereo not drawn) [CBK156040], for which the “% of control remaining” value was 98.1381.

With `CN(C(=O)C1(C)CCOCC1)c1nc2c(s1)CC(c1ccccc1)CC2` (stereo not drawn) [CBK305531], the “% of control remaining” value was determined as 81.9253. `CC(=O)Nc1ccc(-c2ccc(C(=O)NCc3ccc(C(C)C)cc3)cn2)cc1` [CBK158857]: the “% of control remaining” value was 64.6233.

Turning to `Cc1ccnc2nc(C(=O)OCC(=O)Nc3cccc(C#N)c3)nn12` [CBK305068], the “% of control remaining” value is reported as 63.803. To `Cc1ccc(-c2ccc(CCC(=O)O)n2CC2CCCO2)cc1` (stereo not drawn) [CBK268636] belongs 93.8287; to `c1ccc(-c2cccc(-c3cc(Nc4ccc(N5CCOCC5)cc4)ncn3)c2)cc1` [CBK090930], 73.2722; to `CCN1CCC2(CCC1=O)CN(Cc1cncn1CC(C)C)CCN2C` (stereo not drawn) [CBK306947], 52.9822.

As for `Cc1ccc(N2CCCN(C(=O)CCc3ccsc3)CC2)nn1` [CBK304573], the “% of control remaining” value came out at 55.581.

Consider `CCCc1cc(=O)[nH]c(Nc2ccc(OCC)cc2)n1` [CBK288140], for which the “% of control remaining” value amounted to 80.9121. Next, `O=S(=O)(c1ccc(C(F)(F)F)cc1Cl)N1CCN(Cc2c[nH]nc2-c2cccs2)CC1` [CBK062864]: 81.605; `CC(C)(C)OC(=O)Nc1ccc(Oc2ncc(C(F)(F)F)cc2Cl)cc1` [CBK161658]: 88.019; `Cc1cc2ncc3c(n2n1)CC1CCC3N1Cc1ccccc1` (stereo not drawn) [CBK282266]: 85.6056.

Regarding `Cc1ccc(C(=O)COC(=O)C(Cc2ccccc2)N2C(=O)c3cc(Cl)c(Cl)cc3C2=O)cc1` (stereo not drawn) [CBK264176], the “% of control remaining” value worked out at 102.251. To `N=C1NS(=O)(=O)NC1c1ccc(Cl)cc1` (stereo not drawn) [CBK263858] belongs 106.523. To `COCCNc1nc(-c2ccsc2)ccc1C(=O)N1CCN(C)CC1` [CBK105948] belongs 76.2507. Next, `OCCNCCNCc1ccc(-c2ccccc2)cc1` [CBK278269C]: 76.8416. For the molecule `O=C(Nc1cccc(Br)c1)C1CN(S(=O)(=O)c2ccccc2)CCN1S(=O)(=O)c1ccccc1` (stereo not drawn) [CBK262671], the “% of control remaining” value came to 78.8566. To `COCCN1C(=O)CO[C@H]2CN(C(=O)Nc3ccc(F)cc3)C[C@H]21` [CBK289705] belongs 72.7419; to `COc1ncc(-c2nccnc2Oc2cccc(NC(C)=O)c2)c(OC)n1` [CBK106747], 88.3677. On to `O=c1c2ccccc2nc2n1CCN(Cc1c(F)cccc1F)CC2` [CBK284817], for which the “% of control remaining” value is 91.1981. To `COc1ccc2c(CCNC(=O)C(c3ccccc3)c3ccccc3)c[nH]c2c1` [CBK269294] belongs 115.417; to `Cc1c(C(=O)NC(Cc2ccsc2)c2cccnc2)cnn1C` (stereo not drawn) [CBK285115], 89.408. On to `Cc1cc(C)nc(N2CCC(CC(=O)NCc3ccccc3N3CCCC3)CC2)n1` [CBK286071], for which the “% of control remaining” value came out at 122.042. To `O=C(CO)N1CC2(CCN(Cc3cc(=O)[nH]c(=O)[nH]3)CC2)c2ccccc21` [CBK131510] belongs 107.247; to `CN(Cc1ccccc1)c1nccnc1-c1ccccc1Cl` [CBK037502], 114.927.

For the molecule `N#Cc1c(NC(=S)NC(=O)c2ccc(-c3cccc([N+](=O)[O-])c3)o2)sc2c1CCCC2` [CBK268471], the “% of control remaining” value is on record as 92.6077. To `CC(Oc1ccc(Br)cc1)C(=O)Nc1ccc(C(N)=O)cc1` (stereo not drawn) [CBK266760] belongs 97.4075; to `COc1cc(N)c(Cl)cc1C(=O)OCc1cc2ccc(C)cc2nc1Cl` [CBK296755], 112.478. Next, `c1ccc2oc(-c3cc4ccccc4o3)cc2c1` [CBK113363]: 100.362; `CCSc1nc(N2CCNC[C@@H]2C)ccc1C(F)(F)F` [CBK003986A]: 82.3345; `NC(=O)C1CCN(C(=O)C2=NN(c3ccccc3)C(c3ccccc3)C2)CC1` (stereo not drawn) [CBK296760]: 106.696.

With `CC(C)Cc1nsc(NC2CCCN(c3ccn(C)n3)C2=O)n1` (stereo not drawn) [CBK304696], the “% of control remaining” value stood at 55.8148. To `COCCC(=O)Nc1cccc(N2CCNCC2)c1` [CBK004769T] belongs 98.3543. To `CCC(CO)NCc1ccc(OCC(N)=O)cc1` (stereo not drawn) [CBK304670] belongs 63.1414; to `O=C1CCC(=O)N1CCOc1nccnc1N1CCN(CCCn2c(=O)[nH]c3ccccc32)CC1` [CBK084300], 54.8691. Next, `NC(=O)c1ccc(-n2ncc(-c3ccsc3)n2)cc1` [CBK112858]: 104.211; `Cc1ccc(CCC(=O)NNc2ccccc2)o1` [CBK260924]: 94.2381; `Cc1c(Cl)cccc1S(=O)(=O)Nc1cccc(C(=O)Nc2ccc(F)cc2)c1` [CBK038983]: 78.8263. Regarding `CC1=NNC(=S)NC(C)(C)C1` [CBK021597], the “% of control remaining” value stood at 50.9941. With `CC(=O)N1CCC2(C/C=C/C[C@H]3CN(C(=O)CCC4CCCC4)CC[C@H]3NC(=O)CNC2=O)CC1` [CBK292111], the “% of control remaining” value turned out to be 111.076. As to `O=C(COc1ccc2ccccc2c1)N1CCN(S(=O)(=O)c2ccc([N+](=O)[O-])cc2)CC1` [CBK264277], the “% of control remaining” value was 90.8025. Take `O=C(Cn1ncn2c(cc3ccsc32)c1=O)N1CCCCCC1` [CBK284202]: the “% of control remaining” value was determined as 95.6301. Next, `COc1cccc(Nc2cc(-c3ccc(N4CCOCC4)cc3)ncn2)c1OC` [CBK037687]: 159.056; `NC(=O)CCCCn1c2c(c3cccc(C(=O)O)c31)CCCCC2` [CBK034088]: 102.084. Regarding `NC(=O)COc1ccccc1OCC(N)=O` [CBK261032], the “% of control remaining” value was determined as 101.059. Regarding `Fc1ccc(C2(CCCN3CCN(c4ccncc4)CC3)OCCO2)cc1` [CBK038887], the “% of control remaining” value turned out to be 78.8603.
